The supplement of paper PMC11417369
± gives the standard deviation of the averaged measurements. This is one part of the list.

System: PfAP2-EXP AP2 domain (GST-tagged)
Assay: gcPBM binding intensity (ln(normalized median fluorescence intensity)); higher = stronger DNA binding
Procedure, shortened: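 For binding intensity, the highest Masliner-normalised natural-log median intensity across replicate spots of either probe orientation was taken. Protein bound to the array was stained with Alexa488 anti-GST antibody and scanned at 488 nm. The protein, GST-tagged P. falciparum DNA-binding domains from E. coli at about 25 μg on average, had been applied for 1 h to an Agilent 4 × 180k array of primer-extended double-stranded 36-bp intergenic genomic probes and negative controls.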

“ATCACATATATATATAATATATATATGTATATATTT [GTGCAC_negctrl_site249]” and “AAAAAAAATATATATGCACACACAAAAAAACAAATT [CACACA_site8349]” are within error of each other in “gcPBM binding intensity (ln)” value: 8.18 ± 0.5 for the first, 8.79 ± 0.33 for the second.

Compared with “ATATATATATATATATGTACATATATTTTTATTTAT [XGTACX_site3508]”, “TTGTAATAAAGAATTAAAAAAAAATATATACAGGTA [GTGCAC_negctrl_site150]” is lower in “gcPBM binding intensity (ln)” value: 10.3 ± 0.26 for the first, 8.44 ± 0.41 for the second.

“TATTACTTATAAATTACACACAAATGATTGAACATT [CACACA_site2259]” and “TTAATTACATGTAATTGTACTTAATTATAAGACATT [XGTACX_site464]” are within error of each other in “gcPBM binding intensity (ln)” value: 8.29 ± 0.38 for the first, 8.44 ± 0.27 for the second.

“TATACCTTTTTATTCACACATATATGTCATATGTCA [CACACA_site5423]” and “TTTTACCTAAATATCACACATATTTAAATATATATA [CACACA_site5597]” are within error of each other in “gcPBM binding intensity (ln)” value: 8.98 ± 0.43 for the first, 8.43 ± 0.36 for the second.

Compared with “TTAAAATAAAGAAAATGTACATAAATAAAAATAAAG [XGTACX_site2280]”, “CATGTTATGATTCCATGTACTTATAGCATTAAAAAA [XGTACX_site8939]” is lower in “gcPBM binding intensity (ln)” value: 9.11 ± 0.26 for the first, 8.46 ± 0.057 for the second.

“TTTTTTTAATTAGTTTGTACATATTGTTATAATATA [XGTACX_site6294]” and “ATTATACCACCCGATATACACACTTGTAGACATCTT [CACACA_site7944]” are within error of each other in “gcPBM binding intensity (ln)” value: 8.56 ± 0.4 for the first, 8.74 ± 0.47 for the second.

“AAAAAAAAATACATATGTACTTATGTATAATGTTGT [XGTACX_site8104]” and “TATATTAAACCATGTAGTACCTTGAATAAATATTAT [XGTACX_site8254]” are within error of each other in “gcPBM binding intensity (ln)” value: 8.58 ± 0.33 for the first, 8.43 ± 0.32 for the second.

“ATAAAAAGGAGACACACACACACACGCATATTTATA [CACACA_site6551]” and “AACATATATATATATACATGCATATGAACAACGAAT [TGCATGCA_site93]” are within error of each other in “gcPBM binding intensity (ln)” value: 8.82 ± 0.67 for the first, 9.34 ± 0.48 for the second.

First: TGTATAAATATAATCACACATATATATATATATATA [CACACA_site4365]
Second: TATAAAAATGTTTACACACACACATAAATATATTTT [CACACA_site2512]
The “gcPBM binding intensity (ln)” value of the first is higher: 10.3 ± 0.73 for the first, 8.51 ± 0.41 for the second.

“TTTTTTTTTTTTCTGAGTACGAAAAATAGAGATAGA [XGTACX_site3825]” and “AAGTTACAAAATCAAAAGGAAAAAATATAAAATAAT [CACACA_negctrl_site561]” are within error of each other in “gcPBM binding intensity (ln)” value: 8.7 ± 0.53 for the first, 8.72 ± 0.3 for the second.

“CAAGAAAATTGACACACACACATATTTATATTTATA [CACACA_site7766]” and “ATGAATAAATTAAAAATGCACACTTTGATGGGTACA [CACACA_site2157]” are within error of each other in “gcPBM binding intensity (ln)” value: 8.36 ± 0.48 for the first, 8.32 ± 0.092 for the second.

Compared with “TATATATATATATATACACACTATATAATTCAAACA [CACACA_site4712]”, “TATACCAGTTTTAAAAGTACTTGTGCATAAAAAATA [XGTACX_site4794]” is lower in “gcPBM binding intensity (ln)” value: 10.1 ± 0.33 for the first, 8.85 ± 0.099 for the second.

“TTACGATTATACAAAAGTACATGTATTACACAATAT [XGTACX_site5138]” and “AAATTGGGGCTTGTTACACACTTAGTGGGAGTTCTA [CACACA_site4485]” are within error of each other in “gcPBM binding intensity (ln)” value: 8.6 ± 0.33 for the first, 8.84 ± 0.6 for the second.

“AAACTTGTAAGAAACACACACACACCCATATATATA [CACACA_site797]” and “AAATTATATTCAAGTGCATGTAACTTATTATTATAT [TGCATGCA_site526]” are within error of each other in “gcPBM binding intensity (ln)” value: 8.86 ± 0.31 for the first, 8.71 ± 0.28 for the second.

“CACTATATAAGAACCTGTACTCAATTTTGCAATATA [XGTACX_site7238]” and “ATATTTATTTATTTATGTACGCACACAGTTGATATT [XGTACX_site5808]” are within error of each other in “gcPBM binding intensity (ln)” value: 8.57 ± 0.29 for the first, 8.92 ± 0.4 for the second.

“TAATAATAAAAATAAACACACATATATATGTATATA [CACACA_site2853]” and “TATATTTTCCTGCAAACACACATATAAATGTGTAGA [CACACA_site533]” are within error of each other in “gcPBM binding intensity (ln)” value: 8.39 ± 0.32 for the first, 8.35 ± 0.3 for the second.

Going from “TATAATCAATATGTAACACACAAAAGTTATATACTT [CACACA_site7368]” to “AACATGCTCAACTTTTTTTTTTTTTTTTTTTTTTTT [CACACA_negctrl_site1617]”, the “gcPBM binding intensity (ln)” value rises from 8.37 ± 0.44 to 9.08 ± 0.11.

“GTAAAAATAAAAACTGGTACACAAGTTGTTATAAAA [XGTACX_site502]” and “AAAATAAAATAAAAGTGTACGTTTTAAGAACATTGA [XGTACX_site2382]” are within error of each other in “gcPBM binding intensity (ln)” value: 8.54 ± 0.33 for the first, 8.55 ± 0.33 for the second.

“CTTTTTTGTTAAAGTGTGCGCAATAGTTATAGACTT [GTGCAC_site9670]” and “AATCTTAAAAATATATGTACTAAAAAAAAAAAAAAT [XGTACX_site6195]” are within error of each other in “gcPBM binding intensity (ln)” value: 8.81 ± 0.42 for the first, 8.37 ± 0.47 for the second.

“ATTCTCCAAGTTTGATGTACACATATGACGACGGCG [XGTACX_site4912]” and “TTTTTATATTTAATGTGTCCTCACTTAAAAGGATGA [XGTACX_site2744]” are within error of each other in “gcPBM binding intensity (ln)” value: 8.75 ± 0.42 for the first, 8.27 ± 0.27 for the second.

“TATAATAATTATACATGTACACATTATTTGGATAAA [XGTACX_site5552]” and “AATATATTTTTTGGTTGTACAGAGATCTTTGTAGAA [XGTACX_site1707]” are within error of each other in “gcPBM binding intensity (ln)” value: 8.49 ± 0.3 for the first, 8.55 ± 0.49 for the second.

“TACAATAAGGATAAGTGTACATATGTGCATACATAT [XGTACX_site7188]” and AAAAATTATAGAAAAGTGCAATACATGTTACACCAT are within error of each other in “gcPBM binding intensity (ln)” value: 8.58 ± 0.24 for the first, 8.635 ± 0.064 for the second.

For “CATATAGCATAATCATGTACACATACAACAAATAGG [XGTACX_site1589]”, the “gcPBM binding intensity (ln)” value was 8.88 ± 0.3.
